These results are taken from PMC4336329 (PLoS ONE, 2015).

Hit rate of the full screen: of about 310,000 compounds, about 2,200 (0.71%) showed an effect of 50% or more. The effect is printed as a negative number. This is one part of the list.

For this assay, the target named is human ether-à-go-go-related gene (hERG) potassium channel (human, UniProt Q12809). Kind of assay: primary screen, population patch clamp on CHO cells stably expressing hERG.
Sequence of human ether-à-go-go-related gene (hERG) potassium channel (Q12809 whole entry, looked up): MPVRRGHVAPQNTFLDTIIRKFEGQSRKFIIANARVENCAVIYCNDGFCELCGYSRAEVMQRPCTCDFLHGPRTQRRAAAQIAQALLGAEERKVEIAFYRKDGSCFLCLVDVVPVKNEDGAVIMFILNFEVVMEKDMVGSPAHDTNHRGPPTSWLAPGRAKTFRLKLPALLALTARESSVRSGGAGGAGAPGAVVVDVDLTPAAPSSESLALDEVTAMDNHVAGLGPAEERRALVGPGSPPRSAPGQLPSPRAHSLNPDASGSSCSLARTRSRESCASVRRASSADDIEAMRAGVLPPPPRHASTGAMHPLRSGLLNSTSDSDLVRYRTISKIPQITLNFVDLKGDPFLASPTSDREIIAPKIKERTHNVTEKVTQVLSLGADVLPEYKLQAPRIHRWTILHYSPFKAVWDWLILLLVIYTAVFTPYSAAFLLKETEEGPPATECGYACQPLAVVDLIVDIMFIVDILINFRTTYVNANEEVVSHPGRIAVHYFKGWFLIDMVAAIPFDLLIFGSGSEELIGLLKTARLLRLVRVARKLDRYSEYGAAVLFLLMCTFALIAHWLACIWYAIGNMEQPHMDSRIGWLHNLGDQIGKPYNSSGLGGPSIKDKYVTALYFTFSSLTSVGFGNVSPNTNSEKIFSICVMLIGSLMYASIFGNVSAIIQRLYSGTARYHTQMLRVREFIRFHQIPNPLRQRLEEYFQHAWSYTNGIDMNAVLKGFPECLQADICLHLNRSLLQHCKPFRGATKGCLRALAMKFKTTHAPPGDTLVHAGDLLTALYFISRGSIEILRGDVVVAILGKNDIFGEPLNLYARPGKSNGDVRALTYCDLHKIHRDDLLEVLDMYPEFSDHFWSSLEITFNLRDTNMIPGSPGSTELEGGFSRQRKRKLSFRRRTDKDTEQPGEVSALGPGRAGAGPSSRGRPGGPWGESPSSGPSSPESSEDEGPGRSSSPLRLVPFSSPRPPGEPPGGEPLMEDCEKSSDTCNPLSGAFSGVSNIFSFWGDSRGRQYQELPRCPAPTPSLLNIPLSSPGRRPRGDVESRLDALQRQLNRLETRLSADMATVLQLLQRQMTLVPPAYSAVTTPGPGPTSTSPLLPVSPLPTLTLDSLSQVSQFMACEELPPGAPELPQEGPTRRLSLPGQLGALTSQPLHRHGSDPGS
On to `COc1ccc(OC)c(-c2cc(C3CCN(c4cc(Cl)nc(N)n4)CC3)[nH]n2)c1`, for which the “hERG current change (%, negative = inhibition) at 1uM” value is listed as 1.07%. Under `C/C(Cc1ccccc1)=N\NC(=O)CNC(=O)c1cccc(Br)c1` stands -2.43%; under `Cc1ccc(/C=C(\NC(=O)c2ccccc2)C(=O)NC(Cc2ccccc2)C(=O)O)cc1` (centres unmarked), 14%. Under `O=C(Nc1ncccc1Cl)C(Sc1ccccc1)c1ccccc1` (centres unmarked) stands 16.1%. Under `COc1cc(C(=O)Nc2ccc3c(c2)N(C(=O)CN2CCN(C)CC2)c2ccccc2CC3)cc(OC)c1OC.Cl` stands 10.8%.

With `CCC(C)[C@H](NC(=O)N1CC(=O)Nc2ccccc21)C(=O)Nc1nccs1` (some centres unmarked), the “hERG current change (%, negative = inhibition) at 1uM” value was 12.3%. Under `O=C(CCC(NC(=O)OCc1ccccc1)C(=O)O)OCc1ccccc1` (centres unmarked) stands 15.5%; under `C=CCOc1ccc(C(c2c(C(=O)O)[nH]c3ccccc23)c2c(C(=O)O)[nH]c3ccccc23)cc1`, 5.23%; under `COc1ccc(OCC(=O)N2CC3(C)CC2CC(C)(C)C3)cc1` (centres unmarked), -7.34%. To `O=S(=O)(NCc1ccccn1)C(F)(F)F` belongs 10.6%; to `CCOC(=O)NC(NC(=S)Nc1ccc(OCC)cc1)C(Cl)(Cl)Cl` (centres unmarked), 17%.

Turning to `O=C(Oc1ccc(Cl)c2cccnc12)c1cccnc1`, the “hERG current change (%, negative = inhibition) at 1uM” value stood at 13.2%. As for `O=c1cc(CO)oc(CN2CCC(Cc3ccccc3)CC2)c1O`, the “hERG current change (%, negative = inhibition) at 1uM” value came out at 16.8%. To `N#CCCN(C(=O)COC(=O)C1=COCCO1)c1ccc(F)cc1` belongs 13.6%; to `CC(=O)Nc1ccc(NC(=O)CCS(=O)(=O)c2ccc3c(c2)oc(=O)n3C)cc1`, 15.7%. To `CC1CCN(S(=O)(=O)c2ccc3c(c2)c(=O)c(C(=O)N2CCOCC2)cn3C)CC1` belongs 18.7%; to `O=[N+]([O-])c1ccc(O)c(C=Nc2ccc3c(c2)OCO3)c1`, 5.28%.

For `CCOc1ncccc1C(=O)N=c1sccn1C`, the “hERG current change (%, negative = inhibition) at 1uM” value was 14.5%. Under `O=C(NC(=S)Nc1ccc2[nH]ncc2c1)c1ccccc1` stands 13.3%.

As to `COc1ccc2c(c1)C=Cc1ccccc1O2`, the “hERG current change (%, negative = inhibition) at 1uM” value came out at 4.18%. Consider `Cc1ccccc1NC(=O)CSc1nc(=O)n(CCN2CCOCC2)c2c1CCCC2`, for which the “hERG current change (%, negative = inhibition) at 1uM” value was found to be 0.443%. To `CCOc1ccc(CNc2ccc(N3CCCC3)cc2)cc1` belongs 5.97%; to `c1ccc(-c2cnc(-c3ccccn3)nn2)cc1`, 17.8%. To `CC1CCN(C(=O)c2cc3ccccc3o2)CC1` belongs 0.771%. Under `Cc1ccccc1NC(=S)N1CCCC1` stands 11.4%. As to `Cc1cc(OC(C)C(=O)Nc2ccncc2)ccc1Cl` (centres unmarked), the “hERG current change (%, negative = inhibition) at 1uM” value was determined as 2.35%. With `COC(=O)C/C(O)=C(/N=Nc1cccc(C(F)(F)F)c1)C(=O)OC`, the “hERG current change (%, negative = inhibition) at 1uM” value came out at 14.7%. In the case of `O=C(C1CCN(S(=O)(=O)c2ccccc2[N+](=O)[O-])CC1)N1CCOCC1`, the “hERG current change (%, negative = inhibition) at 1uM” value is -1.29%. To `CN(CC(O)CON=C1c2ccccc2-c2ccccc21)S(=O)(=O)c1ccc(Br)cc1` (centres unmarked) belongs 12.9%. To `COC(=O)c1cc(OC)c(OC)cc1NC(=O)Nc1cccc(C(C)=O)c1` belongs 4.94%.

With `CCCS(=O)(=O)N1CCN(CCN2C(=O)c3cccc4cccc(c34)C2=O)CC1`, the “hERG current change (%, negative = inhibition) at 1uM” value was found to be 15.7%. To `CCCn1c2ccccc2c2cc(C(=O)O)ccc21` belongs 7.08%; to `COC(=O)c1ccccc1NC(=O)c1cc2n(n1)C(C(F)F)CC(C(F)F)N2` (centres unmarked), 12.2%. To `CCn1ccc(-c2ccccc2)c(C#N)c1=O` belongs -0.848%. As for `CCC(CC)NC(=O)Nc1ccccc1C`, the “hERG current change (%, negative = inhibition) at 1uM” value was 11.5%. `CC(=O)Oc1ccc(C(=O)Nc2cccc3c2CCCC3)cc1`: the “hERG current change (%, negative = inhibition) at 1uM” value amounted to 17.7%. To `Cc1nc2ccccc2c(=O)n1CCCN1CCOCC1` belongs 11.4%; to `CCOC(=O)c1c(C(=O)OCC)c(C)n(N2C(=O)CSC2=S)c1C`, 19.4%. Under `O=C(NCC1CCCO1)C(Cc1ccccc1)N1C(=O)C2C3C=CC(C4CC34)C2C1=O` (centres unmarked) stands 2.39%.

Take `COc1cc(OC)c2ccc(=O)oc2c1C(CC(=O)N1CCCC(C)C1)c1ccc2c(c1)OCO2` (centres unmarked): the “hERG current change (%, negative = inhibition) at 1uM” value was 7.87%.

As to `COc1ccc(C(=O)/C=C/Nc2cc(C)on2)c(OC)c1`, the “hERG current change (%, negative = inhibition) at 1uM” value is -2.29%.

On to `Fc1ccc(-c2ccnc3nc(N4CCOCC4)nn23)cc1`, for which the “hERG current change (%, negative = inhibition) at 1uM” value was -0.798%. Turning to `O=C1CC(SC(=NCc2ccc3c(c2)OCO3)Nc2ccccc2)C(=O)N1` (centres unmarked), the “hERG current change (%, negative = inhibition) at 1uM” value came to 16.2%.

Turning to `N#CC[N+]1(CCCNP2(=O)C=C(c3ccccc3)OC(c3ccccc3)=C2)CCOCC1.[Cl-]`, the “hERG current change (%, negative = inhibition) at 1uM” value was -23.2%.

With `COC(=O)c1ccc(-n2c(C)nc3ccccc3c2=O)cc1`, the “hERG current change (%, negative = inhibition) at 1uM” value stood at 6.38%. Under `Cc1cc(N2CCCC2)ccc1/C=C1\NC(=S)N(C)C1=O` stands 3.21%; under `O=C(COC(=O)c1ccc2[nH]c3c(c2c1)CCCC3)NC1CCS(=O)(=O)C1` (centres unmarked), -0.612%; under `CC(=O)Nc1ccc(S(=O)(=O)Oc2ccc(/C=N/NC(=O)c3ccc(Cl)cc3)cc2)cc1`, 15.7%. To `Cn1nnc2cc(C(=O)N3CCSCC3)ccc21` belongs 15.2%; to `CN(C)c1ccc(N=Cc2nc(-c3ccccc3)oc2OC(=O)c2cccc(Br)c2)cc1`, 6.69%. Consider `O=C(NC(=S)Nc1cccc(-c2ccc(CO)o2)c1)c1cccs1`, for which the “hERG current change (%, negative = inhibition) at 1uM” value is reported as 13.7%. To `CCCn1cc(S(=O)(=O)CC(=O)Nc2ccc(OCC)cc2)c2ccccc21` belongs -2.8%; to `COc1ccc(C2C(C(=O)N3CCCC3)c3cc(OC)c(OC)cc3C(=O)N2C)cc1OC` (centres unmarked), 8.14%.

For `c1ccc(Cc2nnc3sc(-c4ccncc4)nn23)cc1`, the “hERG current change (%, negative = inhibition) at 1uM” value was -3.84%. Take `COc1ccc(C2=NN(C(=O)c3cccc([N+](=O)[O-])c3)C(c3cccc([N+](=O)[O-])c3)C2)cc1` (centres unmarked): the “hERG current change (%, negative = inhibition) at 1uM” value was -10.1%.

Turning to `Cc1cc(C(=O)O)c(CCCN)s1.Cl`, the “hERG current change (%, negative = inhibition) at 1uM” value is 15.6%. Regarding `Cc1cccc(Oc2sc(C(=O)c3ccccc3)c(N)c2C#N)c1`, the “hERG current change (%, negative = inhibition) at 1uM” value was determined as 2.43%.

`CCn1cc(Cl)c(C(=O)Nc2cccc(C(F)(F)F)c2)n1`: the “hERG current change (%, negative = inhibition) at 1uM” value was 8.06%. Under `O=C1CCN(S(=O)(=O)c2ccccc2)C2CCCCC12` (centres unmarked) stands -0.853%; under `Cc1ccc(C)c(CSc2nnc(-c3cccs3)n2Cc2ccco2)c1`, -5.9%. Under `Cc1oc2cc(O)ccc2c(=O)c1Oc1ccc(F)cc1` stands 15.4%; under `Cn1c(=O)c2c(ncn2CC(=O)OCC(=O)Nc2ccccc2)n(C)c1=O`, -5.19%; under `CCOc1ccccc1NC(=O)C(Sc1nnc2ccccn12)c1ccccc1` (centres unmarked), 9.73%. Regarding `O=C(Nc1cccnc1)c1cccc(-c2cc3ccccc3oc2=O)c1`, the “hERG current change (%, negative = inhibition) at 1uM” value was 13%. Under `Cc1ccc(NC(=O)c2cc(-c3ccc4c(c3)OCO4)on2)cc1C` stands 15.4%; under `COc1ccccc1NC(=O)N(C1CCCC1)C1CCN(C(C)=O)CC1`, -0.739%. To `COCc1c(C(=O)NCC2COc3ccccc3O2)oc2ccccc12` (centres unmarked) belongs 7.62%; to `CCn1c2ccccc2c2nnc(SCC(=O)N(C)C3CCS(=O)(=O)C3)nc21` (centres unmarked), 4.01%. With `CCNC(=S)N/N=C/c1ccc(OCc2ccc(C(=O)OC)cc2)cc1`, the “hERG current change (%, negative = inhibition) at 1uM” value is on record as -4.16%. Under `O=C(CCCn1c(SCc2cccc(F)c2)nc2ccccc2c1=O)NCC1CCCO1` (centres unmarked) stands 8.81%; under `Cc1cc2cc(CNC(=O)c3cccc([N+](=O)[O-])c3)ccc2n1C`, 13.8%; under `CCOc1ccc(S(=O)(=O)NCCC(=O)N(C)CC(=O)Nc2ccc(OC)cc2)cc1`, 8.06%.

For the compound `COc1cc2c(cc1C1C(C#N)=C(N)OC3=C1C(=O)CC(C)(C)C3)OCO2` (centres unmarked), the “hERG current change (%, negative = inhibition) at 1uM” value came to 3.63%. In the case of `O=C(CSc1nc(C2CCCCC2)nc2ccccc12)NCc1ccco1`, the “hERG current change (%, negative = inhibition) at 1uM” value was found to be 13.1%. Turning to `O=C(COc1ccc(Br)cc1CO)Nc1ccccc1F`, the “hERG current change (%, negative = inhibition) at 1uM” value amounted to 10.6%. To `Cc1cc(/C=C2/C(=O)NC(=O)N(Cc3ccco3)C2=O)c(C)n1-c1ccc(C(=O)O)cc1` belongs 13.7%. For `CCn1cc(C(=O)O)c(=O)c2cc(F)c(N/N=C/c3ccccc3[N+](=O)[O-])cc21`, the “hERG current change (%, negative = inhibition) at 1uM” value was determined as 3.61%.

Regarding `O=C(O)CN=C1NC2(CCCCC2)Cc2ccccc21`, the “hERG current change (%, negative = inhibition) at 1uM” value is recorded as 5.63%. Turning to `COC(=O)Cc1ccc(OC(=O)CCS(=O)(=O)c2ccc(C)cc2)cc1`, the “hERG current change (%, negative = inhibition) at 1uM” value is reported as 19%.

Turning to `C[n+]1cccc(O)c1SCc1ccccc1.[Br-]`, the “hERG current change (%, negative = inhibition) at 1uM” value was 11.4%. `CC1(C)c2[nH]c3ccccc3c2C[C@H]2C(=O)N(N)CC(=O)N21.Cl`: the “hERG current change (%, negative = inhibition) at 1uM” value turned out to be 9.35%. Under `O=C(c1ccc2c(c1)OCO2)C1CCCN(C(=O)Nc2ccc(F)cc2F)C1` (centres unmarked) stands -2.13%; under `S=C(Nc1cccnc1)Nc1cccc2cnccc12`, 12.6%; under `CCc1n[nH]c(=S)n1/N=C/c1c(O)ccc2ccccc12`, 11.6%. To `Cc1cccc(Cn2ncc(Cl)c(Cl)c2=O)c1` belongs 13.4%; to `CC(C)C(=O)NC(c1ccc(Cl)cc1Cl)c1ccc2cccnc2c1O` (centres unmarked), 16.3%. Under `NC1=NC(=O)C2(COC(c3ccccc3Cl)OC2)S1` (centres unmarked) stands 13.2%.

With `COc1cc(CC(=O)NCC2COc3ccccc3O2)cc(OC)c1OC` (centres unmarked), the “hERG current change (%, negative = inhibition) at 1uM” value came to 8.78%. As to `O=C(NCc1ccc2c(c1)OCO2)C1CCN(S(=O)(=O)c2cccs2)CC1`, the “hERG current change (%, negative = inhibition) at 1uM” value is on record as 13.9%.
